Results reported in article PMC4336329 (PLoS ONE, 2015).
Screen size: about 310,000 compounds; about 2,200 (0.71%) showed an effect of 50% or more. Effects have a minus sign here. This is one part of the list.

target: human ether-à-go-go-related gene (hERG) potassium channel (human, UniProt Q12809); assay: primary screen, population patch clamp on CHO cells stably expressing hERG
Sequence (Q12809 whole entry, looked up): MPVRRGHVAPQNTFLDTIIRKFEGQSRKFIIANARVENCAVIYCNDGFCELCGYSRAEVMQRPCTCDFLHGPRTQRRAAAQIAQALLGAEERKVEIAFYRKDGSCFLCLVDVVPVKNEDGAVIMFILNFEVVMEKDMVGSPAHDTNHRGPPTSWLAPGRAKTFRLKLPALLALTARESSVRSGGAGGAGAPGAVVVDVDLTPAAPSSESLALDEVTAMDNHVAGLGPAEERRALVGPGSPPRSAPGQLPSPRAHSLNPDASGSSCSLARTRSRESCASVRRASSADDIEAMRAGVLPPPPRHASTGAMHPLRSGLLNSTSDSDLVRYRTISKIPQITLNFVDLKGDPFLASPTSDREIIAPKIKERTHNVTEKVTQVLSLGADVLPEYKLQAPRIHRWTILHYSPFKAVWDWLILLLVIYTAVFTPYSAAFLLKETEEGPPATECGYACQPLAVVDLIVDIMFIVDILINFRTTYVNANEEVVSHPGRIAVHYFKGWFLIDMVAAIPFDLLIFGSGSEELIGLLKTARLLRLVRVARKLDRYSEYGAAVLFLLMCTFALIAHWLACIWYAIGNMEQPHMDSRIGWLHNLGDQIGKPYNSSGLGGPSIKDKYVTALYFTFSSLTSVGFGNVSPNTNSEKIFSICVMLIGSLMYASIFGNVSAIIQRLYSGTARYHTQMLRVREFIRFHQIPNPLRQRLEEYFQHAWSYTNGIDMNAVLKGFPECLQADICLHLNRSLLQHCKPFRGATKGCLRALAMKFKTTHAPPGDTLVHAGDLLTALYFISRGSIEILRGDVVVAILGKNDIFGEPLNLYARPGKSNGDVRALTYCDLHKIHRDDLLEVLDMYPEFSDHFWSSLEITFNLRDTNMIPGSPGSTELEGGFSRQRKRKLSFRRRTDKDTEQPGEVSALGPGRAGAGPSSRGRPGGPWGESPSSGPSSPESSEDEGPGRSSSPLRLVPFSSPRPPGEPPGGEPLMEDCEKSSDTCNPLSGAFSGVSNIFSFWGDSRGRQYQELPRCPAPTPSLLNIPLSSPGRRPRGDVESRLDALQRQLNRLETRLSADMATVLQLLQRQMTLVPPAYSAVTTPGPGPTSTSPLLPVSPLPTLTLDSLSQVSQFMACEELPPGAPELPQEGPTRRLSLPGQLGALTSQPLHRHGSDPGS

SMILES	hERG current change (%, negative = inhibition) at 1uM [%]
CCCC1(c2ccccc2)NC(=O)N(CC(=O)N2CC(=O)Nc3ccccc32)C1=O (centres unmarked)	8.83
COc1ccc(CNC(=O)CSc2ncn[nH]2)cc1	-9.54
O=C(Nc1c(C(=O)N2CCN(c3ccccn3)CC2)oc2ccccc12)c1ccc([N+](=O)[O-])cc1	-4.07
NC(=O)CC1C(=O)N(c2ccc(F)cc2)C(=O)N1NC(=O)CCc1ccccc1 (centres unmarked)	10.6
Cn1ccnc1SCc1cc(=O)[nH]c2ccccc12	19.2
COc1ccc(/C=N/NC(=O)Nc2nonc2N)cc1	-1.78
O=c1c(-c2cccc([N+](=O)[O-])c2)[n+]([O-])c2ccccc2n1O	23
CCCCCN(C(=O)CCC(=O)OCc1cccc(F)c1)c1c(N)n(CCCC)c(=O)[nH]c1=O	10.2
CC1CN(Cc2cc(=O)oc3cc(O)c(Cl)cc23)CC(C)O1 (centres unmarked)	12.3
Cc1ccc(S(=O)(=O)N2CCCOC2CNC(=O)C(=O)NCCc2c[nH]c3ccccc23)cc1 (centres unmarked)	14.2
CCOc1ccccc1NC(=S)N(CCCN1CCOCC1)Cc1cn(C)c2ccccc12	5.62
C#CC(C)(C)NC(=O)c1ccc(-c2ccccc2F)cc1	6.64
CC(C)(CNS(=O)(=O)c1ccc2c(c1)OCCO2)N1CCOCC1.Cl	10.8
CC1(C)CC(=O)C2=C(C1)N(c1ccc(Cl)cc1)C(=O)C2(O)C(F)(F)F (centres unmarked)	-4.33
CC(OC(=O)CNC(=O)COc1ccccc1)C(=O)N(C)Cc1ccccc1 (centres unmarked)	17.2
CC(=O)O[C@@H]1[C@@H](O)[C@@H](O)[C@H](Oc2c(-c3ccc(O)cc3)oc3c(CC=C(C)C)c(O)cc(O)c3c2=O)O[C@H]1C	11.6
Cc1ccc(C)c(N2CCN(C(=O)c3cc(S(=O)(=O)N4CCOCC4)ccc3F)CC2)c1	0.203
Cc1nn(C)cc1NC(=O)CCSc1nc(-c2ccco2)cc(C(F)(F)F)n1	2.51
Cc1ccc(S(=O)(=O)N(C)C)cc1NC(=O)CSc1nc2ccccc2c(=O)n1CC1CCCO1 (centres unmarked)	-8.49

SMILES	hERG current change (%, negative = inhibition) at 1uM [%]
Cc1cc(=O)[nH]c(N/N=C/c2ccc(F)cc2)n1	15.9
N#Cc1c(C(F)(F)F)cc(-c2ccco2)nc1SCc1ccncc1	4.12
O=C(CCS(=O)(=O)Cc1ccccc1)N1CCN(c2ccccc2)CC1	-5.53
Cc1cc(C)n2c(=O)c3ccc(Cl)cc3nc2c1C#N	12.2
O=C(Cc1nc2ccccc2[nH]1)c1ccc(Cl)cc1	11.4
CCCNc1cc(C)oc(=O)c1C(=O)CC	18.4
O=C(Nc1ccccc1C(=O)OCc1nnc(-c2ccccc2)o1)c1ccco1	0.391
Cc1ccc(CN(C(=O)c2ccco2)C2CCS(=O)(=O)C2)cc1 (centres unmarked)	4.51
Cc1c(C)c2ccc(OCC(=O)Nc3ccc(N4CCC(C)CC4)cc3)cc2oc1=O	14
CCOc1ccc(NC(c2ccccn2)c2oc(CO)cc(=O)c2O)cc1 (centres unmarked)	11.1
COc1ccc(C)cc1S(=O)(=O)NC(C)C(=O)Nc1ccc2c(c1)OCO2 (centres unmarked)	9.62
COc1ccc(-c2cc(CNS(=O)(=O)c3cc(OC)ccc3OC)on2)cc1	8.68
O=S(=O)(c1ccc(Br)s1)N1CCCCC1	10.4
CCOc1ccc(N(CC(=O)NCCCOC)S(C)(=O)=O)cc1	2.69
C=C(C)Cn1c(=O)c2c(nc3n2CCCN3CCc2ccccc2)n(C)c1=O	-41.5
Cc1ccc(-n2c(CNc3ccc(F)cc3)nnc2SCC(N)=O)cc1	2.57
O=C(Nc1ccccc1)Nc1cccc2ccccc12	8.06
COc1cc(C2C(C(C)=O)=C(O)C(=O)N2c2ccc(C)cc2)ccc1O (centres unmarked)	17.1
CC1CC(C)CN(S(=O)(=O)c2cccc3nonc23)C1 (centres unmarked)	9.47

SMILES	hERG current change (%, negative = inhibition) at 1uM [%]
COc1ccc(N2CCN(C(=S)Nc3ccc(F)cc3)CC2)cc1	18.4
CC1CCC(=O)N(CCOc2ccccc2)CC1 (centres unmarked)	-1.81
CCOC(=O)c1nnn(-c2nonc2N)c1CN(C)Cc1ccccc1	9.78
CCOc1ccc2oc(C(=O)N3CCN(c4ccccn4)CC3)c(C)c2c1	15.3
O=C(NC1CCCC1)c1ccc(Cl)c(S(=O)(=O)N2CCOCC2)c1	1.58
CCCCn1c(SCc2cccnc2)nc2c1c(=O)n(C)c(=O)n2C	-2
COc1ccc(C(C)(C)C)cc1NC(=O)COC(=O)C1=NNC(=O)CC1	3.3
O=C(CSc1nnnn1-c1ccc(F)cc1)Nc1ccccc1F	11
C/C(=N\N=C1\NC(=O)C(CC(=O)Nc2ccccc2F)S1)C1CCCCC1 (centres unmarked)	-0.148
CC(C)NC(=O)NC(=O)CSc1nncn1C	1.66
Nn1c(SCC(=O)NC(=O)Nc2ccc3c(c2)OCCO3)nnc1C1CC1	13.8
O=C(Nc1ccc2oc(-c3ccncc3)nc2c1)c1ccc(F)cc1	-1.1
Cc1ccc(O)c(-c2cc(C(=O)Nc3ccc(S(=O)(=O)Nc4nccc(C)n4)cc3)[nH]n2)c1	6.89
CCC(C)NS(=O)(=O)c1ccc(OCC(=O)N2CCCCC2)cc1 (centres unmarked)	7.55
CN1CCN(c2ccc(F)cc2N)CC1	17
C=CCn1c(SCc2ccc(C(=O)Nc3ccccc3)cc2)nnc1-c1ccccc1	-2.11
CCCN1C(=O)c2ccccc2NC1c1ccc(Cl)c(Cl)c1 (centres unmarked)	10.7
CC(NC(=O)Nc1cccnc1)(C(F)(F)F)C(F)(F)F	1.35
